Results on 40 sequences are retold here after PMC12820563.

The list shows a part of the results. The list includes weakly bound sequences.

This test has as its target T1, MBP-FoxP3dN (UniProt Q99JB6).
T1 sequence: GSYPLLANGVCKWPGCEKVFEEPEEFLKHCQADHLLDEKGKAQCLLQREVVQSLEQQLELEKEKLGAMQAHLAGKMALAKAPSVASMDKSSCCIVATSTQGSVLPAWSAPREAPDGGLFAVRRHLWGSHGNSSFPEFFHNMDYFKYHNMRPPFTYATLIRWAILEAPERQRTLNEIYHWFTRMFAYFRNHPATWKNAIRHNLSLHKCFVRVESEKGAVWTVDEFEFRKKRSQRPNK
The experiment in a line: PD-seq (MBP pull-down with sequencing). The conditions noted are these: 20 mM Tris-HCl pH 7.5, 100 mM NaCl, 1.5 mM MgCl2, 0.4 uM protein, 0.1 uM dsDNA library, 30 min, room temperature, amylose pull-down; high values mean tight binding; double strand, one strand shown.
For the sequence “GATGATTGTTCTCCCAGCTGATGAATTAAATCATTCGAGTAAACAAATTTTCCTAATCTTTCTGTTCAAGCGCCATCTAC”, the binding signal (RPM ratio (pull-down/input)) turned out to be 0.567.

For “GATGATTGTTCTCCCAGCTGATGAATTCGCCCTATCGAGTAAACAAATTTTCCTAATCTTTCTGTTCAAGCGCCATCTAC”, the binding signal (RPM ratio (pull-down/input)) came to 0.347.

As to “GATGATTGTTCTCCCAGCTGATGAATTAAGTGAGTCGAGTAAACAAATTTTCCTAATCTTTCTGTTCAAGCGCCATCTAC”, the binding signal (RPM ratio (pull-down/input)) was found to be 0.771.

Regarding “GATGATTGTTCTCCCAGCTGATGAATTCCGAAAATCGAGTAAACAAATTTTCCTAATCTTTCTGTTCAAGCGCCATCTAC”, the binding signal (RPM ratio (pull-down/input)) turned out to be 0.153.

On to “GATGATTGTTCTCCCAGCTGATGAATTCTAAGTTTCGAGTAAACAAATTTTCCTAATCTTTCTGTTCAAGCGCCATCTAC”, for which the binding signal (RPM ratio (pull-down/input)) stood at 0.357.

Take “GATGATTGTTCTCCCAGCTGATGAATTGTGCGCTTCGAGTAAACAAATTTTCCTAATCTTTCTGTTCAAGCGCCATCTAC”: the binding signal (RPM ratio (pull-down/input)) worked out at 2.13.

As for “GATGATTGTTCTCCCAGCTGATGAATTGCTAGGATCGAGTAAACAAATTTTCCTAATCTTTCTGTTCAAGCGCCATCTAC”, the binding signal (RPM ratio (pull-down/input)) worked out at 0.411.

As to “GATGATTGTTCTCCCAGCTGATGAATTATGAAGTTCGAGTAAACAAATTTTCCTAATCTTTCTGTTCAAGCGCCATCTAC”, the binding signal (RPM ratio (pull-down/input)) turned out to be 0.371.

In the case of “GATGATTGTTCTCCCAGCTGATGAATTCTGCAGTTCGAGTAAACAAATTTTCCTAATCTTTCTGTTCAAGCGCCATCTAC”, the binding signal (RPM ratio (pull-down/input)) is 1.58.

“GATGATTGTTCTCCCAGCTGATGAATTGTCCCATTCGAGTAAACAAATTTTCCTAATCTTTCTGTTCAAGCGCCATCTAC”: the binding signal (RPM ratio (pull-down/input)) amounted to 0.448.

On to “GATGATTGTTCTCCCAGCTGATGAATTAGCATGATCGAGTAAACAAATTTTCCTAATCTTTCTGTTCAAGCGCCATCTAC”, for which the binding signal (RPM ratio (pull-down/input)) came out at 0.785.

As to “GATGATTGTTCTCCCAGCTGATGAATTAGGTACCTCGAGTAAACAAATTTTCCTAATCTTTCTGTTCAAGCGCCATCTAC”, the binding signal (RPM ratio (pull-down/input)) came out at 0.545.

Take “GATGATTGTTCTCCCAGCTGATGAATTCTATCTTTCGAGTAAACAAATTTTCCTAATCTTTCTGTTCAAGCGCCATCTAC”: the binding signal (RPM ratio (pull-down/input)) came out at 0.478.

In the case of “GATGATTGTTCTCCCAGCTGATGAATTTAAACCGTCGAGTAAACAAATTTTCCTAATCTTTCTGTTCAAGCGCCATCTAC”, the binding signal (RPM ratio (pull-down/input)) was 0.261.

Turning to “GATGATTGTTCTCCCAGCTGATGAATTCCTGATATCGAGTAAACAAATTTTCCTAATCTTTCTGTTCAAGCGCCATCTAC”, the binding signal (RPM ratio (pull-down/input)) was 0.354.

Regarding “GATGATTGTTCTCCCAGCTGATGAATTGGAGTGCTCGAGTAAACAAATTTTCCTAATCTTTCTGTTCAAGCGCCATCTAC”, the binding signal (RPM ratio (pull-down/input)) came out at 0.436.

“GATGATTGTTCTCCCAGCTGATGAATTGCAGCCCTCGAGTAAACAAATTTTCCTAATCTTTCTGTTCAAGCGCCATCTAC”: the binding signal (RPM ratio (pull-down/input)) was found to be 0.85.

In the case of “GATGATTGTTCTCCCAGCTGATGAATTGGTTCACTCGAGTAAACAAATTTTCCTAATCTTTCTGTTCAAGCGCCATCTAC”, the binding signal (RPM ratio (pull-down/input)) amounted to 0.405.

Turning to “GATGATTGTTCTCCCAGCTGATGAATTTCGCGGATCGAGTAAACAAATTTTCCTAATCTTTCTGTTCAAGCGCCATCTAC”, the binding signal (RPM ratio (pull-down/input)) worked out at 0.283.

As to “GATGATTGTTCTCCCAGCTGATGAATTGTCTCATTCGAGTAAACAAATTTTCCTAATCTTTCTGTTCAAGCGCCATCTAC”, the binding signal (RPM ratio (pull-down/input)) turned out to be 0.539.

As for “GATGATTGTTCTCCCAGCTGATGAATTTGTAGTCTCGAGTAAACAAATTTTCCTAATCTTTCTGTTCAAGCGCCATCTAC”, the binding signal (RPM ratio (pull-down/input)) is 5.11.

In the case of “GATGATTGTTCTCCCAGCTGATGAATTGTGCCGGTCGAGTAAACAAATTTTCCTAATCTTTCTGTTCAAGCGCCATCTAC”, the binding signal (RPM ratio (pull-down/input)) turned out to be 1.15.

“GATGATTGTTCTCCCAGCTGATGAATTCAACTACTCGAGTAAACAAATTTTCCTAATCTTTCTGTTCAAGCGCCATCTAC”: the binding signal (RPM ratio (pull-down/input)) amounted to 0.442.

With “GATGATTGTTCTCCCAGCTGATGAATTAGTGCTCTCGAGTAAACAAATTTTCCTAATCTTTCTGTTCAAGCGCCATCTAC”, the binding signal (RPM ratio (pull-down/input)) is 0.804.

With “GATGATTGTTCTCCCAGCTGATGAATTAAGTAGGTCGAGTAAACAAATTTTCCTAATCTTTCTGTTCAAGCGCCATCTAC”, the binding signal (RPM ratio (pull-down/input)) turned out to be 0.517.

As to “GATGATTGTTCTCCCAGCTGATGAATTCTACGCGTCGAGTAAACAAATTTTCCTAATCTTTCTGTTCAAGCGCCATCTAC”, the binding signal (RPM ratio (pull-down/input)) is 0.52.

For the sequence “GATGATTGTTCTCCCAGCTGATGAATTCAAGGGCTCGAGTAAACAAATTTTCCTAATCTTTCTGTTCAAGCGCCATCTAC”, the binding signal (RPM ratio (pull-down/input)) amounted to 0.231.

As to “GATGATTGTTCTCCCAGCTGATGAATTTAGCTTATCGAGTAAACAAATTTTCCTAATCTTTCTGTTCAAGCGCCATCTAC”, the binding signal (RPM ratio (pull-down/input)) was 2.42.

Turning to “GATGATTGTTCTCCCAGCTGATGAATTAATTACTTCGAGTAAACAAATTTTCCTAATCTTTCTGTTCAAGCGCCATCTAC”, the binding signal (RPM ratio (pull-down/input)) came to 0.897.

As for “GATGATTGTTCTCCCAGCTGATGAATTGGCCTGTTCGAGTAAACAAATTTTCCTAATCTTTCTGTTCAAGCGCCATCTAC”, the binding signal (RPM ratio (pull-down/input)) stood at 0.51.

For “GATGATTGTTCTCCCAGCTGATGAATTCTGTGGTTCGAGTAAACAAATTTTCCTAATCTTTCTGTTCAAGCGCCATCTAC”, the binding signal (RPM ratio (pull-down/input)) was determined as 2.74.

On to “GATGATTGTTCTCCCAGCTGATGAATTTCCAGGATCGAGTAAACAAATTTTCCTAATCTTTCTGTTCAAGCGCCATCTAC”, for which the binding signal (RPM ratio (pull-down/input)) was 0.169.

Regarding “GATGATTGTTCTCCCAGCTGATGAATTGTTGCTATCGAGTAAACAAATTTTCCTAATCTTTCTGTTCAAGCGCCATCTAC”, the binding signal (RPM ratio (pull-down/input)) was 2.98.

Take “GATGATTGTTCTCCCAGCTGATGAATTAGCTGAATCGAGTAAACAAATTTTCCTAATCTTTCTGTTCAAGCGCCATCTAC”: the binding signal (RPM ratio (pull-down/input)) turned out to be 0.251.

Take “GATGATTGTTCTCCCAGCTGATGAATTATAGTCCTCGAGTAAACAAATTTTCCTAATCTTTCTGTTCAAGCGCCATCTAC”: the binding signal (RPM ratio (pull-down/input)) turned out to be 0.456.

Turning to “GATGATTGTTCTCCCAGCTGATGAATTGTAAGCGTCGAGTAAACAAATTTTCCTAATCTTTCTGTTCAAGCGCCATCTAC”, the binding signal (RPM ratio (pull-down/input)) is 0.753.

Turning to “GATGATTGTTCTCCCAGCTGATGAATTCACGCTCTCGAGTAAACAAATTTTCCTAATCTTTCTGTTCAAGCGCCATCTAC”, the binding signal (RPM ratio (pull-down/input)) turned out to be 0.686.

In the case of “GATGATTGTTCTCCCAGCTGATGAATTGTGTTGCTCGAGTAAACAAATTTTCCTAATCTTTCTGTTCAAGCGCCATCTAC”, the binding signal (RPM ratio (pull-down/input)) worked out at 4.64.

On to “GATGATTGTTCTCCCAGCTGATGAATTAATAGCTTCGAGTAAACAAATTTTCCTAATCTTTCTGTTCAAGCGCCATCTAC”, for which the binding signal (RPM ratio (pull-down/input)) is 0.556.

As to “GATGATTGTTCTCCCAGCTGATGAATTCGGGGCCTCGAGTAAACAAATTTTCCTAATCTTTCTGTTCAAGCGCCATCTAC”, the binding signal (RPM ratio (pull-down/input)) was 0.449.
